Assay results from PubChem BioAssay AID1466 (National Center for Advancing Translational Sciences (NCATS), 2008).
Screen size: about 200,000 compounds; about 10 (0.005%) were called active. Inconclusive results, whose numbers are uncertain, are shown with a selection of clear calls. Calls follow the shape of the dose curve; as a rule, active = well fitted inhibition curve with a large enough effect; inconclusive = small, poorly fitted or top-dose-only effect, or effect the other way, or another doubt; inactive = no such curve, though single readings can be large or run the other way. No potency is given beside an inconclusive call; the fits are too rough.
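For activity change, negative = inhibition in this document: plate controls were uninhibited enzyme wells for no effect and no-enzyme background for full effect.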
Potency is read from the fitted curve at half-maximal effect; tags tell the direction and shape of the fitted curve.

Each molecule was assayed against Lysosomal alpha-glucosidase (Homo sapiens) (UniProt P10253) (assay: qHTS Assay for Inhibitors of Human alpha-Glucosidase as a Potential Chaperone Treatment of Pompe Disease). Settings: purified human GAA, 4-MU-alpha-glucoside fluorescence; activity change, negative = inhibition: at 76.9 µM (top of the series) unless noted.
Procedure, shortened: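 qHTS format, compound range up to 77 uM. Human lysosomal enzyme at 4 nM, 400 uM 4-MU glucoside substrate, pH 5.0, 20 min room temperature; fluorescence after alkaline stop gives activity normalized to controls.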
`Cc1ccc(C)c(NC(=S)NCc2ccc3c(c2)OCO3)c1` was tested, and the Potency was inconclusive [inhibitor, single point]. For `CCCCC(=O)Nc1ccc(C(=O)NNC(=S)NC(=O)c2ccccc2[N+](=O)[O-])cc1`, the activity change, negative = inhibition was inconclusive: -15.8% [inhibitor]. For `COC(=O)c1sc2nc(N3CCCCC3)c3c(c2c1N)CCCC3`, the Potency was inconclusive [activator, partial curve]. With `CS(=O)(=O)N(CC(=O)Nc1ccc(CC#N)cc1)c1ccc(C23CC4CC(CC(C4)C2)C3)cc1` the Potency was inconclusive [inhibitor, single point]. In the case of `COc1ccc(/C=C/C(=O)OCC(=O)NCCC2=CCCCC2)cc1S(=O)(=O)N1CCOCC1`, the Potency is reported as inconclusive [inhibitor, single point]. For `CCCc1cc(=O)[nH]c(N/N=C/C=C\c2ccccc2)n1`, the Potency was inconclusive [inhibitor, full curve, poor fit]. `CCOc1ccccc1C(=O)N[C@H](C(=O)Nc1cc(S(=O)(=O)N(C)C)ccc1OC)C(C)C` was tested, and the Potency was inconclusive [inhibitor, partial curve, poor fit]. With `CC(=O)Nc1cccc(C(=O)O)n1` the activity change, negative = inhibition was inconclusive: 17.9% [activator]. `CSc1ncccc1C(=O)Nc1ccc(S(=O)(=O)NC2=NCCCCC2)cc1` was tested, and the Potency was inconclusive [inhibitor, single point]. In the case of `Cc1ncsc1CCOC(=O)c1ccc(N2CCOCC2)c([N+](=O)[O-])c1`, the Potency is reported as inconclusive [inhibitor, partial curve]. For `Cc1cccc(-c2cc3nc(C)cc(NCCCn4ccnc4)n3n2)c1`, the Potency was inconclusive [inhibitor, single point]. `Cc1cc(-n2nc(C)cc2C)nc(NS(=O)(=O)c2ccccc2Cl)n1` was tested, and the Potency was inconclusive [inhibitor, single point]. `CCOC(=O)c1ccc(NC(=O)CN(c2ccc(C)cc2)S(=O)(=O)c2c(C)n[nH]c2C)cc1` was tested, and the Potency was inconclusive [inhibitor, single point]. `CCOc1ccc(NC(=O)C(c2ccccn2)N(C(=O)CCl)c2ccc(OC)cc2)cc1` (configuration not stated) was tested, and the Potency was “inactive”. With `O=C(N/N=C/c1ccc(OCc2ccccc2)cc1)c1cccs1` the Potency was inconclusive [activator, partial curve]. With `CCOC(=O)c1c(NC(=O)CC2Nc3cc(C)c(C)cc3NC2=O)sc(C)c1C` (configuration not stated) the Potency was inconclusive [inhibitor, partial curve, poor fit]. In the case of `COc1ccc(CNc2oc(-c3cccc4ccccc34)nc2C#N)cc1`, the Potency is reported as inconclusive [activator, partial curve]. In the case of `COc1cccc(CCc2nnc(CCC(=O)NCCc3cccc(C)n3)o2)c1`, the activity change, negative = inhibition is reported as inconclusive: 15.5% [activator]. `Cc1nc2sccn2c1-c1csc(NCc2ccccc2)n1` was tested, and the activity change, negative = inhibition was inconclusive: -17.9% [inhibitor]. In the case of `CCOCCCn1c(=S)[nH]c2cc(C(=O)NCCN(CC)CC)ccc2c1=O`, the Potency is reported as inconclusive [inhibitor, partial curve]. `Cc1cccn2c(=O)c3cc(C(=O)N(C)C)n(C)c3nc12` was tested, and the Potency was inconclusive [activator, single point]. For `CN1CCN(S(=O)(=O)c2ccc(NC(=O)Nc3cccc(Cl)c3)cc2)CC1`, the Potency was inconclusive [inhibitor, single point]. In the case of `CCOc1cc(N2CCOCC2)c(OCC)cc1NS(=O)(=O)c1ccc(Cl)s1`, the Potency is reported as “inactive”. `O=C1CC(c2cccs2)CC2=C1C(c1ccccc1)n1ncnc1N2` (configuration not stated) was tested, and the Potency was inconclusive [activator, partial curve]. `C(=C\c1cccc2ccccc12)/c1nnc(-c2cccs2)o1` was tested, and the Potency was inconclusive [activator, partial curve, poor fit]. For `COc1ccc([N+](=O)[O-])cc1NC(=O)COC(C)=O`, the activity change, negative = inhibition was inconclusive: -16.9% [inhibitor]. For `CCN(c1ccccc1)S(=O)(=O)c1ccc(C(=O)Nc2nnc(CSC)o2)cc1`, the activity change, negative = inhibition was inconclusive: 17.1% [activator]. In the case of `Cn1nc(C(=O)OCC(=O)Nc2ccc3ccccc3c2)c2ccccc2c1=O`, the activity change, negative = inhibition is reported as inconclusive: -15.8% [inhibitor]. For `COc1ccc(N2CCN(C(=O)C3CCC(Cn4c(=S)[nH]c5ccccc5c4=O)CC3)CC2)cc1` (configuration not stated), the Potency was inconclusive [inhibitor, single point]. With `CCC(=O)N1c2ccc(S(=O)(=O)CCC(=O)NCCC3=CCCCC3)cc2CC1C` (configuration not stated) the Potency was inconclusive [inhibitor, single point]. `CCc1ccc(N(C(=O)CNC(=O)c2ccco2)C(C(=O)NCC2CCCO2)c2ccccc2)cc1` (configuration not stated) was tested, and the activity change, negative = inhibition was inconclusive: 18.9% [activator]. In the case of `COC(=O)/C(=C/c1c[nH]c2ccccc12)[N+](=O)[O-]`, the Potency is reported as inconclusive [activator, partial curve, poor fit]. For `CCOC(=O)c1c(N)sc2c(OCC)c(Br)ccc12`, the activity change, negative = inhibition was inconclusive: -17.9% [inhibitor]. For `CCOc1cc(/C=N/O)ccc1OCc1ccc(C)cc1`, the Potency was inconclusive [inhibitor, full curve, poor fit]. `O=C(COc1ccc(Cl)cc1)Nc1cccc(-c2ccc3nncn3n2)c1` was tested, and the Potency was inconclusive [inhibitor, single point]. `Cc1ccc(C)n1-n1c(C)nc2scc(-c3ccccc3)c2c1=O` was tested, and the Potency was inconclusive [inhibitor, partial curve, poor fit]. With `O=C(NCc1cccnc1)c1ccc(-c2cccc(Cl)c2Cl)o1` the Potency was inconclusive [activator, full curve, poor fit]. `Cc1cs/c(=N\N=C\c2ccc(O)cc2)n1Cc1ccco1` was tested, and the Potency was inconclusive [inhibitor, partial curve]. With `Brc1ccc(-c2csc(NNC3=NCCCCC3)n2)cc1` the Potency was inconclusive [inhibitor, full curve]. For `CC(C)(C)OC(=O)c1c(N)n(CCCN2CCCC2=O)c2nc3ccccc3nc12`, the Potency was inconclusive [activator, partial curve]. In the case of `CCSc1nnc(-c2cc3c(s2)-c2ccccc2CC3)o1`, the Potency is reported as inconclusive [activator, partial curve]. `Cc1nn(-c2ccccn2)c2c1C(c1ccccn1)C1=C(CCCC1=O)N2` (configuration not stated) was tested, and the Potency was inconclusive [activator, partial curve]. With `CCn1c(SCC(=O)Nc2nc3ccc(OC)cc3s2)nnc1-c1ccoc1C` the Potency was inconclusive [inhibitor, partial curve, poor fit]. For `CCCCn1c2nc3ccccc3nc2c2c(=N)oc(C)nc21`, the Potency was inconclusive [activator, partial curve]. With `O=c1oc2ccccc2c(N2CCCCC2)c1[N+](=O)[O-]` the Potency was inconclusive [inhibitor, single point]. For `Cc1ccc(/C(O)=C2/C(=O)C(=O)N(CCCn3ccnc3)C2c2ccccn2)cc1` (configuration not stated), the activity change, negative = inhibition was inconclusive: -15.4% [inhibitor]. In the case of `CCCCN1C=C(C(=O)OC)C(c2ccccc2Cl)C(C(=O)OC)=C1`, the Potency is reported as inconclusive [activator, partial curve]. With `Cc1cc(C)c(Cn2cnc(-c3ccc([N+](=O)[O-])cc3)c2)c(C)c1` the Potency was inconclusive [inhibitor, single point]. For `CC(=O)Nc1ccc(C(=O)OCC(=O)NC2CCCCCCC2)cc1`, the Potency was inconclusive [inhibitor, partial curve]. `CCS/C(N)=N/N=C/c1cc(C)ccc1O` was tested, and the Potency was inconclusive [inhibitor, single point]. For `Cc1ccccc1C(=O)Nc1ccccc1N1CCCCC1`, the activity change, negative = inhibition was inconclusive: 15.7% [activator]. With `CCN(CC)S(=O)(=O)c1cccc(C(=O)NC(Cc2c[nH]c3ccccc23)c2nnc3n2CCCCC3)c1` (configuration not stated) the Potency was inconclusive [inhibitor, partial curve]. `COc1ccc(N2C(=O)C3C4C=CC(C4)C3C2=O)c(OC)c1` (configuration not stated) was tested, and the Potency was inconclusive [inhibitor, single point]. With `COc1cccc(N2C(=O)CC(N3CCN(C(=O)c4ccco4)CC3)C2=O)c1` (configuration not stated) the activity change, negative = inhibition was inconclusive: -18.3% [inhibitor]. With `Cc1cc(C(=O)CSc2nnc(Nc3ccccc3F)s2)c(C)n1CC1CCCO1` (configuration not stated) the Potency was inconclusive [inhibitor, single point]. For `CCOC(=O)c1c(C=O)c(C)n(Cc2ccccc2Cl)c1C`, the Potency was inconclusive [inhibitor, single point]. In the case of `Cn1c(=O)c2c(nc(SCCN3CCOCC3)n2Cc2ccc(F)cc2)n(C)c1=O`, the Potency is reported as inconclusive [inhibitor, single point]. With `O=C(Nc1ccc2c(c1)CCC2)c1ccccc1` the Potency was inconclusive [inhibitor, single point]. With `CCCC(c1nnnn1Cc1ccc(F)cc1)N1CCN(C)CC1` (configuration not stated) the activity change, negative = inhibition was inconclusive: 17.8% [activator]. With `CCOc1ccc(NS(=O)(=O)c2ccc(C(=O)N3CCN(c4ncccn4)CC3)cc2)cc1` the Potency was inconclusive [inhibitor, single point]. In the case of `Cc1ccc2cc(CN(CCN3CCCC3)C(=O)Nc3ccc(F)cc3)c(=O)[nH]c2c1C`, the Potency is reported as inconclusive [inhibitor, single point]. With `CCCc1nc2ccccc2c(=O)n1/N=C/c1ccccc1O` the Potency was inconclusive [inhibitor, full curve, poor fit].
